{"source": "paper PMC10626271", "molecular_target": "T1, C-terminal domain of ASPL (ASPL-C, residues 313-553) (human) (UniProt Q9BZE9)", "T1 sequence": "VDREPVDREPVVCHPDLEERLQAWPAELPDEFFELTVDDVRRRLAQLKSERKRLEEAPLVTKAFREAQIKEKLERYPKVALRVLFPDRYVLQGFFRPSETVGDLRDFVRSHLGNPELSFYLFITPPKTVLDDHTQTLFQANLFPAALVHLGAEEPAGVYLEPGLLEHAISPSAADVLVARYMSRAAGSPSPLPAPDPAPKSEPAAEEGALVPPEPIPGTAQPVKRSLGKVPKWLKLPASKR", "assay": "SPR; ASPL-C immobilised on CM5 chip by amine coupling (1000 RU); analytes 0.6 to 83 μM in 10 mM HEPES, 150 mM NaCl, 0.005% Tween20, pH 7.4; BIAcore 3000, duplicates; one-site specific binding fit of the response against concentration; no saturation reached; both purified", "note": "No constants are given. Whether binding was seen depends on the method and setting."}
{"substance": "His-tagged thioredoxin (Trx) (from UniProt P0AA25 1-109)", "values": [{"measurement": "binding", "value": "no binding (tested: 0.6 to 83 μM)"}]}
